Reference: the supplement of paper PMC4967469

Tests used:
Experiment in all cases: Viability of human cancer cell lines after 72 h of drug (GDSC screen)
[1] = compound: CC(C)(C)c1nc(-c2cccc(NS(=O)(=O)c3c(F)cccc3F)c2F)c(-c2ccnc(N)n2)s1 [Dabrafenib]; settings: top dose 10 µM
Method: (§1)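 Human cancer cell lines in 384-well plates, medium with 10% serum, drug for 72 h over a 256-fold dose range (nine 2-fold or five 4-fold steps up to the top dose). Adherent lines were fixed and stained with the nucleic acid dye Syto60, suspension lines read with resazurin; signal relative to control wells, capped at 0 and 100%. One two-parameter sigmoid per drug and line, fitted in a mixed model over all curves with the slope shared within a line.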

[2] = compound: CCc1c2c(nc3ccc(O)cc13)-c1cc3c(c(=O)n1C2)COC(=O)[C@]3(O)CC [SN-38]; settings: top dose 0.05 µM; top dose inferred
Method: as §1

[3] = compound: CN(Cc1cnc2nc(N)nc(N)c2n1)c1ccc(C(=O)N[C@@H](CCC(=O)O)C(=O)O)cc1 [Methotrexate]; settings: top dose 0.2 µM
Method: as §1

[4] = compound: CNC(=O)c1ccccc1Sc1ccc2c(/C=C/c3ccccn3)n[nH]c2c1 [Axitinib]; settings: top dose 2 µM
Method: as §1

[5] = compound: O=C(CCCCCCC(=O)Nc1ccccc1)NO [Vorinostat]; settings: top dose 10 µM
Method: as §1

Cell Line	AUC [1]	IC50 [1] [µM]	AUC [2]	IC50 [2] [µM]	AUC [3]	IC50 [3] [µM]	AUC [4]	IC50 [4] [µM]	AUC [5]	IC50 [5] [µM]
DMS-53 (small cell lung carcinoma, adherent)	0.96	> 10	0.623	0.00698	0.988	> 0.2	0.986	> 2	0.821	6.32
H2722 (mesothelioma, adherent)	0.971	> 10	0.801	0.0301	0.984	> 0.2	0.927	> 2	0.917	> 10
PANC-08-13 (pancreas, adherent)	0.981	> 10	0.946	> 0.05	0.963	> 0.2	0.97	> 2	0.724	3.28
NCI-H508 (large intestine, semi-adherent)	0.908	> 10	0.886	> 0.05	0.899	> 0.2	0.947	> 2	0.571	1.12
KMS-11 (myeloma, suspension)	0.957	> 10	0.965	> 0.05	0.772	0.0662	0.977	> 2	0.704	2.12
LC4-1 (lymphoblastic leukaemia, suspension)	0.945	> 10	0.57	0.00495	0.985	> 0.2	0.973	> 2	0.804	5.67
MFE-296 (endometrium, adherent)	0.92	> 10	0.487	0.00287	0.975	> 0.2	0.848	1.65	0.759	3.75
HCC-56 (large intestine, adherent)	0.982	> 10	0.824	0.0306	0.898	> 0.2	0.953	> 2	0.827	6.32
JHOS-2 (ovary, adherent)	0.884	> 10	0.552	0.00445	0.983	> 0.2	0.965	> 2	0.804	6.04
RCM-1 (large intestine, adherent)	0.892	> 10	0.849	> 0.05	0.94	> 0.2	0.98	> 2	0.606	1.3
TK (B-cell lymphoma, suspension)	0.979	> 10	0.582	0.00512	0.749	0.0598	0.99	> 2	0.627	1.35
OV-17R (ovary, adherent)	0.972	> 10	0.672	0.0115	0.98	> 0.2	0.951	> 2	0.606	1.37
IHH-4 (thyroid, semi-adherent)	0.118	0.0556	0.491	0.00297	0.981	> 0.2	0.919	> 2	0.658	1.56
NCI-H2172 (non-small cell lung carcinoma, adherent)	0.98	> 10	0.981	> 0.05	0.983	> 0.2	0.983	> 2	0.894	> 10
ES4 (Ewing sarcoma, adherent)	0.952	> 10	0.353	0.00115	0.681	0.0433	0.949	> 2	0.662	1.9
SNG-M (endometrium, adherent)	0.349	0.241	0.418	0.00187	0.977	> 0.2	0.959	> 2	0.769	3.7
RCC-AB (kidney, adherent)	0.349	0.21	0.611	0.00695	0.981	> 0.2	0.974	> 2	0.621	1.49
MN-60 (B-cell leukaemia, suspension)	0.972	> 10	0.839	0.0361	0.988	> 0.2	0.987	> 2	0.78	4.27
BICR78 (head and neck, adherent)	0.935	> 10	0.513	0.00342	0.971	> 0.2	0.854	1.97	0.487	0.572
NCI-H747 (large intestine, adherent)	0.921	> 10	0.922	> 0.05	0.981	> 0.2	0.96	> 2	0.865	> 10
COR-L321 (lung, suspension)	0.984	> 10	0.881	> 0.05	0.942	> 0.2	0.975	> 2	0.531	0.761

Cell Line	AUC [1]	IC50 [1] [µM]	AUC [2]	IC50 [2] [µM]	AUC [3]	IC50 [3] [µM]	AUC [4]	IC50 [4] [µM]	AUC [5]	IC50 [5] [µM]
LB771-HNC (head and neck, adherent)	0.956	> 10	0.905	> 0.05	0.982	> 0.2	0.885	> 2	0.897	> 10
WM278 (melanoma, adherent)	0.456	0.466	0.647	0.00845	0.984	> 0.2	0.949	> 2	0.858	9.94
H2373 (mesothelioma, adherent)	0.949	> 10	0.611	0.00682	0.983	> 0.2	0.861	> 2	0.698	2.62
GOTO (neuroblastoma, adherent)	0.974	> 10	0.294	0.00075	0.955	> 0.2	0.868	> 2	0.519	0.708
COLO-824 (breast, adherent)	0.985	> 10	0.894	> 0.05	0.988	> 0.2	0.987	> 2	0.865	9.11
CHP-126 (neuroblastoma, suspension)	0.983	> 10	0.66	0.00883	0.912	> 0.2	0.868	1.9	0.631	1.45
D-336MG (glioma, adherent)	0.974	> 10	0.805	0.0344	0.939	> 0.2	0.974	> 2	0.896	> 10
EVSA-T (breast, adherent)	0.99	> 10	0.687	0.00955	0.977	> 0.2	0.952	> 2	0.648	1.5
GI-1 (glioma, adherent)	0.94	> 10	0.397	0.00165	0.986	> 0.2	0.95	> 2	0.71	2.37
JHU-029 (head and neck, adherent)	0.964	> 10	0.485	0.00282	0.945	> 0.2	0.928	> 2	0.615	1.4
SW684 (fibrosarcoma, adherent)	0.975	> 10	0.903	> 0.05	0.968	> 0.2	0.983	> 2	0.85	> 10
A704 (kidney, adherent)	0.94	> 10	0.861	0.0404	0.988	> 0.2	0.939	> 2	0.827	5.87
ALL-SIL (T-cell leukaemia, suspension)	0.763	3.13	0.301	0.000943	0.837	0.109	0.685	0.377	0.494	0.604
H2369 (mesothelioma, adherent)	0.829	6.51	0.709	0.0125	0.967	> 0.2	0.881	> 2	0.721	2.72
HT-1197 (bladder, adherent)	0.968	> 10	0.969	> 0.05	0.964	> 0.2	0.984	> 2	0.836	8.41
HuCCT1 (biliary tract, adherent)	0.638	1.58	0.658	0.00903	0.982	> 0.2	0.978	> 2	0.81	6.02
COLO-668 (small cell lung carcinoma, adherent)	0.988	> 10	0.64	0.00762	0.914	> 0.2	0.98	> 2	0.805	5.03
PC-3 [JPC-3] (lung adenocarcinoma, adherent)	0.972	> 10	0.713	0.0154	0.974	> 0.2	0.981	> 2	0.817	8.08
LNZTA3WT4 (glioma, adherent)	0.966	> 10	0.651	0.0081	0.913	> 0.2	0.943	> 2	0.766	3.63
LS-180 (large intestine, adherent)	0.972	> 10	0.42	0.00183	0.964	> 0.2	0.978	> 2	0.909	> 10

Lines with a small IC50 respond at low doses; a limit (>, <) means that the fit lies beyond the doses tested. AUC sums up the same curve from the lowest dose to the 256-fold higher top dose: 1 means no effect, lower means more sensitive. For some assays here: An inferred top dose was derived from the fitted curves, not read from the paper.
